Data set [1] has as its system COc1cc2c(cc1OC)C(=O)/C(=C\c1ccc(N3CCN(CCCN(C)C)CC3)cc1)C2. Nature of the data set: Mixed type inhibition of electric eel AChE using acetylthiocholine iodide as substrate assessed as enzyme Vmax at 9.790 uM preincubated for 15 mins followed by substrate addition and measured for 5 mins by Lineweaver-Burk plot analysis (reference value: […]/abs/min). The note with it: Electrophorus electricus.

Data set [2] shares this test system. Nature of the data set: Mixed type inhibition of electric eel AChE using acetylthiocholine iodide as substrate assessed as Km for substrate at 9.790 uM preincubated for 15 mins followed by substrate addition and measured for 5 mins by Lineweaver-Burk plot analysis (reference value: […] uM). The conditions noted are these: Electrophorus electricus.

In the case of “Acetylcholinesterase (Electrophorus electricus) (no sequence given)”, the Vmax (usually the top rate of the reaction or transport when substrate is in excess) in data set [1] is 0.16 /abs/min. The Km – broadly, the concentration of substrate that gives half-maximal velocity – in data set [2] was determined as 3.07 µM.

(Values after ChEMBL document CHEMBL3875179.)
